Results as given in PubChem BioAssay AID504706 (National Center for Advancing Translational Sciences (NCATS), 2011).
The whole screen tested about 320,000 compounds, of which about 200 (0.062%) were called active. This list was built around the results that the source calls inconclusive (neither active nor inactive); the mix of calls is not that of the screen. Calls come from the whole dose curve; as a rule, active = well fitted activation curve with a large enough effect; inconclusive = small, poorly fitted or top-dose-only effect; inactive = no such curve, though single readings can be large or run the other way. No potency is given beside an inconclusive call; the fits are too rough.

Assay: qHTS assay for re-activators of p53 using a Luc reporter; note: nearly all actives have a fitted effect of over 45% in size
Conditions: H1299 p53-A138V BP100-luciferase reporter, luminescence, 24 h; series mostly up to 92.2 µM
Procedure, shortened: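 p53-null H1299 cells stably carrying temperature-sensitive p53-A138V and a BP100-luciferase reporter were pinned with compounds (4-point, 1:5 series) and held 24 hrs at 37 deg C. Luminescence was read 10 min after detection reagent.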
Potency is the fitted concentration of half-maximal effect; tags give direction and shape of the fitted curve.

| SMILES | Potency |
| --- | --- |
| Cc1ccc(/C(N)=N/OC(=O)CCC2CCCC2)cc1 | inconclusive [activator, single point] |
| Clc1ccc(SCc2cn3cccnc3n2)cc1 | inconclusive [activator, partial curve, poor fit] |
| COc1ccc(/C(N)=N/OC(=O)c2ccc3c(c2)OCO3)cc1OC | inconclusive [activator, full curve, poor fit] |
| O=C1c2ccccc2NC(c2cnc3ccccc3n2)N1O (stereo not drawn) | inconclusive [activator, full curve, poor fit] |
| CC(C)Sc1nnc(SCC(=O)NCCCN2CCCC2=O)s1 | inconclusive [activator, single point] |
| CCOC(=O)c1cc2c(nc1N)CC(C)(C)OC2 | inconclusive [activator, single point] |
| COc1ccc(NC(=O)c2cc(-c3cccs3)on2)cc1OC | inconclusive [activator, single point] |
| Cc1c(/C=N\NC(=O)C2COc3ccccc3O2)c2ccccc2n1C (stereo not drawn) | inconclusive [activator, partial curve, poor fit] |
| CCc1ccc(OCCNC(=O)c2ccco2)cc1 | inconclusive [activator, single point] |
| O=C1CC(c2ccccc2)Sc2nc3ccccc3n21 (stereo not drawn) | inconclusive [activator, full curve] |
| CC(C)c1nc(SCC(=O)NCC2CCCO2)c2c(=O)n(C)c(=O)n(C)c2n1 (stereo not drawn) | inconclusive [activator, single point] |
| Cc1ccc(NC(=O)c2cc(=O)c3ccccc3o2)c(C)c1 | inconclusive [activator, single point] |
| COc1ccc2nc(NC(=O)CCNC(=O)c3ccco3)sc2c1 | inconclusive [activator, partial curve, poor fit] |
| O=C(CSc1nnc(NC2CCCCC2)s1)N1CCOCC1 | inconclusive [activator, single point] |
| O=C(N/N=C/c1cn(-c2cccs2)nc1-c1ccccc1)c1ccccc1O | inconclusive [activator, partial curve, poor fit] |
| COc1ccc(S(=O)(=O)N2CCCCCC2)cc1NC(=O)Cc1ccccc1 | inconclusive [activator, single point] |
| Cc1ccc(SCc2nc(-c3cccnc3)no2)cc1 | inactive |
| Cc1ccc(OCC(=O)Nc2ccc(F)cc2)cc1 | inconclusive [activator, partial curve] |
| N#Cc1cc2ccccc2nc1SCc1ccccn1 | inactive |
| COc1ccc(O)c(C(=O)CC(=O)c2ccccc2C)c1 | inconclusive [activator, partial curve, poor fit] |
| COc1ccc(CCC(=O)Nc2ccc(-c3noc(-c4ccc(OC)c(OC)c4)n3)cc2)cc1 | inconclusive [activator, full curve, poor fit] |
| CC(=O)c1cccc(NC(=S)NC(=O)CC(C)(C)C)c1 | inconclusive [activator, single point] |

| SMILES | Potency |
| --- | --- |
| N#C/C(=C\C1CC=CCC1)c1nc2ccccc2[nH]1 (stereo not drawn) | inconclusive [activator, partial curve, poor fit] |
| Cc1ccc(C(=O)N2CCN(c3ccc(F)cc3)CC2)cc1S(=O)(=O)N1CCCCC1 | inactive |
| CCOC(=O)c1c(C)[nH]c(C(=O)N/N=C/c2cccc(OC)c2)c1C | inconclusive [activator, full curve, poor fit] |
| COC(=O)c1c(-c2ccc(Br)cc2)noc1N | inconclusive [activator, single point] |
| COc1ccc(-c2csc(Cc3nc(O)cs3)n2)cc1 | inconclusive [activator, full curve, poor fit] |
| CC(=O)Oc1ccc(C(=O)Nc2nccs2)cc1 | inconclusive [activator, single point] |
| O=C(NCc1ccco1)C12CC3CC(CC(C3)C1)C2 | inactive |
| CCCCOC(=O)Nc1nnc(CC)s1 | inconclusive [activator, full curve, poor fit] |
| Clc1ccsc1-c1csc(-c2cccnc2)n1 | inconclusive [activator, full curve] |
| Cc1nc2ccc(NC(=O)N(C)c3ccccc3)cc2s1 | inconclusive [activator, partial curve, poor fit] |
| CC(C)=NNC(=O)c1c(O)c2ccccc2[nH]c1=O | inactive |
| O=C(NCC1CCCO1)c1cc(-c2ccc(F)cc2)no1 (stereo not drawn) | inconclusive [activator, full curve, poor fit] |
| O=C(Cn1c(NCCCO)nc2ccccc21)c1ccc(Cl)cc1 | inactive |
| O=C(N/N=C/c1ccccn1)c1cc(Br)ccc1O | inconclusive [activator, partial curve, poor fit] |
| CN1C(=CC=C2C=C(I)C(=O)C(I)=C2)C(C)(C)c2ccccc21 | inactive |
| O=C(COc1ccccc1Cl)NNC(=O)c1ccc2c(=O)n3c(nc2c1)CCC3 | inconclusive [activator, single point] |
| Fc1ccc(-c2[nH]ncc2CN2CCN(c3ccc(F)cc3)CC2)cc1 | inactive |
| c1ccc(SCCN2CCc3ccccc3C2)cc1 | inconclusive [activator, partial curve, poor fit] |
| CCOC(=O)N1CCN(C(=O)c2cc(-c3ccc(OCC)cc3)nc3ccccc23)CC1 | inconclusive [activator, partial curve, poor fit] |
| O=C(Nc1nnc(-c2ccccc2)s1)c1ccccc1O | inconclusive [activator, full curve, poor fit] |
| Cc1ccc(CSc2nnc(SCC(=O)N/N=C/c3c(C)nn(-c4ccccc4)c3C)s2)cc1 | inconclusive [activator, partial curve, poor fit] |
